{"source": "PubChem BioAssay AID588342", "about": "(National Center for Advancing Translational Sciences (NCATS), 2011)", "note": "The campaign covered roughly 360,000 compounds. About 25,000 (6.9%) were called active. The inconclusive results got no clear call from the source; some entries with a clear call stand among them for comparison. Calls come from the whole dose curve; as a rule, active = well fitted inhibition curve with a large enough effect; inconclusive = small, poorly fitted or top-dose-only effect; inactive = flat fitted curve, though single readings scatter. A potency beside an inconclusive call is a rough fit, not a confirmed value. Potency is the fitted concentration of half-maximal effect; tags give direction and shape of the fitted curve.", "data": [{"molecular_target": "Luciferin 4-monooxygenase (Photinus pyralis) (UniProt P08659)", "sequence (P08659 whole entry, looked up)": "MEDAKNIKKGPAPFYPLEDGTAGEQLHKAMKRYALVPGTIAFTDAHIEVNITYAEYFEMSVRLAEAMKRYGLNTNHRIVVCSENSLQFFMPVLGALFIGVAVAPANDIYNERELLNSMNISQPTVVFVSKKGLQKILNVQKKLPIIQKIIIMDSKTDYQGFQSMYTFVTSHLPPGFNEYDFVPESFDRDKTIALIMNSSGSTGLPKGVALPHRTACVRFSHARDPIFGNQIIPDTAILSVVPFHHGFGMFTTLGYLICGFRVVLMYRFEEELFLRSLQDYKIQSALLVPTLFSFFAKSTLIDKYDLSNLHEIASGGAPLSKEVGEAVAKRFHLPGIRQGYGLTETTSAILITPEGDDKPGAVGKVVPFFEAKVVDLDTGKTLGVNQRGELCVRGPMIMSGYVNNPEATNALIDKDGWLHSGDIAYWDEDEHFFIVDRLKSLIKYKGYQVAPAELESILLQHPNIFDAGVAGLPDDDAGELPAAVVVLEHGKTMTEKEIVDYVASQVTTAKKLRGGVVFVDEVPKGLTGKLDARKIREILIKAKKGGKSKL", "assay": "qHTS profiling assay for firefly luciferase inhibitor/activator using purifed enzyme and Km concentrations of substrates (counterscreen for miR-21 project); note: nearly all actives have a fitted effect of over 55% in size", "conditions": "purified FLuc, luminescence inhibition; series mostly up to 57.5 µM", "summary_of_the_method": "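Purified P. pyralis luciferase (10nM final) with 10uM D-luciferin and 10uM ATP (Km levels) in 50mM Tris acetate pH 7.5, 10mM Mg acetate, 0.01% Tween-20, 0.05% BSA; qHTS 6-point titration, ~60 µM downward; luminescence read.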", "values": [{"compound": "O=C(CSc1nnc(Nc2ccccc2)s1)Nc1ccc(S(=O)(=O)N2CCOCC2)cc1", "Potency": "active: 10.7 µM"}, {"compound": "Cn1ccsc1=NC(=O)c1ccc(S(C)(=O)=O)cc1", "Potency": "inconclusive: 30.1 µM [inhibitor, partial curve, poor fit]"}, {"compound": "O=Cc1cn(-c2ccccc2)nc1-c1ccccn1", "Potency": "inconclusive: 37.9 µM [inhibitor, partial curve, poor fit]"}, {"compound": "Cc1cccc(NC2=NC(C)(C)N=C(N)N2)c1", "Potency": "inactive"}, {"compound": "O=C(CCSc1ccc(F)cc1)Nc1ccc(-n2cnnn2)cc1", "Potency": "inactive"}, {"compound": "Cc1ccccc1Cn1cc(NC(=O)COc2ccccc2)cn1", "Potency": "inconclusive: 33.8 µM [inhibitor, single point]"}, {"compound": "CC(C)Cn1c(-c2cccs2)nc2nc3ccccc3nc21", "Potency": "inconclusive: 37.9 µM [inhibitor, partial curve, poor fit]"}, {"compound": "O=C(O)CCc1nnc(SCC(=O)Nc2cccc(C(F)(F)F)c2)[nH]c1=O", "Potency": "inconclusive: 21.3 µM [inhibitor, partial curve]"}, {"compound": "O=C(CC(=O)NCCc1ccccc1)NCCc1ccccc1", "Potency": "inactive"}, {"compound": "O=C(Nc1cccc(NC(=O)c2cccc(Cl)c2)c1)c1cccnc1", "Potency": "inconclusive: 21.3 µM [inhibitor, single point]"}, {"compound": "COc1cccc(N2CCN(C(=O)C3CCN(S(=O)(=O)c4c(C)noc4/C=C/c4ccccc4F)CC3)CC2)c1", "Potency": "inactive"}, {"compound": "COC(=O)Oc1ccc(/C=C/C(=O)OC(C)C)cc1OC(=O)OC", "Potency": "inconclusive: 19 µM [inhibitor, partial curve]"}, {"compound": "CC(=O)Nc1ccc(NC(=O)c2ccccc2F)cc1", "Potency": "inconclusive: 23.9 µM [inhibitor, partial curve, poor fit]"}, {"compound": "Cc1ccccc1C(=O)Nc1ccc2nc(N3CCCCC3)cc(C)c2c1", "Potency": "inconclusive: 19 µM [inhibitor, partial curve]"}, {"compound": "CCc1ccccc1OCC(=O)Nc1nc(-c2cccnc2)cs1", "Potency": "inconclusive: 12 µM [inhibitor, partial curve, poor fit]"}, {"compound": "Cc1cc(C)n(-c2cc(Oc3ccccc3)ncn2)n1", "Potency": "inconclusive: 30.1 µM [inhibitor, partial curve, poor fit]"}, {"compound": "CSc1ccccc1OCc1cc(C(=O)N(C)CC2COCCO2)no1", "note": "(centres undefined)", "Potency": "inconclusive: 21.3 µM [inhibitor, single point]"}, {"compound": "COc1ccc(C(=O)CC(=O)c2ccc(OC)cc2)cc1", "Potency": "active: 19 µM"}, {"compound": "CC(=O)Nc1cccc(-c2csc(Nc3ccc(Cl)cn3)n2)c1", "Potency": "active: 2.39 µM"}, {"compound": "Cc1[nH]n(-c2cccc(Cl)c2)c(=O)c1-c1ccc(Cl)cc1", "Potency": "inconclusive: 23.9 µM [inhibitor, single point]"}, {"compound": "C/C(=N\\NC(=O)c1nonc1N)c1cccs1", "Potency": "inconclusive: 30.1 µM [inhibitor, partial curve, poor fit]"}, {"compound": "CCCC(=O)OCc1cnc(C)c2oc(=O)c(C(=O)Nc3cccc(C(F)(F)F)c3)cc12", "Potency": "inactive"}, {"compound": "COc1ccc(N(Cc2cccs2)C(=O)c2ccc(OC)c(Cl)c2)cc1", "Potency": "inconclusive: 21.3 µM [inhibitor, partial curve, poor fit]"}, {"compound": "c1cncc(-c2nc(-c3ccc4c(c3)OCCO4)cs2)c1", "Potency": "active: 1.69 µM"}, {"compound": "Cc1ccc(NC(=O)c2cc3ccccc3o2)nc1", "Potency": "active: 1.9 µM"}, {"compound": "COCCN(Cc1ccc(F)cc1)C(=O)c1cc2ccccc2oc1=O", "Potency": "inactive"}, {"compound": "COc1cccc(CN2c3ccccc3-c3nc(SCC(=O)Nc4ccccc4Cl)ncc3S2(=O)=O)c1", "Potency": "inactive"}, {"compound": "Cc1ccc(S(=O)(=O)/C(C#N)=C/c2c[nH]c3ccccc23)cc1", "Potency": "inactive"}, {"compound": "Cc1oc(-c2ccc(Cl)cc2)nc1CS(=O)CC(=O)NCc1ccccn1", "note": "(centres undefined)", "Potency": "inactive"}, {"compound": "CC(C)COc1ccc(C(=O)N2CCN(CCc3ccncc3)CC2)cc1", "Potency": "inactive"}, {"compound": "O=C1C(Nc2ccccc2)=C/C(=N/S(=O)(=O)c2cccs2)c2ccccc21", "Potency": "inconclusive: 13.5 µM [inhibitor, partial curve, poor fit]"}, {"compound": "CC(=O)N=C1SC2CS(=O)(=O)CC2N1c1ccc(-c2nc3ccc(C)cc3s2)cc1", "note": "(centres undefined)", "Potency": "active: 9.53 µM"}, {"compound": "COc1ccc2c(=O)cc(C(=O)O)oc2c1", "Potency": "inactive"}, {"compound": "CCC(Oc1ccc(F)cc1)C(=O)Nc1c(C(=O)c2ccc(C)cc2)oc2ccccc12", "note": "(centres undefined)", "Potency": "inactive"}, {"compound": "COc1ccc(Nc2cc3n(c(=O)n2)CCc2cc(OC)c(OC)cc2-3)cc1", "Potency": "inconclusive: 30.1 µM [inhibitor, partial curve, poor fit]"}, {"compound": "Cc1ccc(C(=O)Nc2ccc(S(=O)(=O)N3CCCC3)cc2)cc1", "Potency": "inconclusive: 37.9 µM [inhibitor, partial curve, poor fit]"}, {"compound": "Cc1ccc(C(=O)NCCn2cc(SCC(=O)Nc3nnc(C)s3)c3ccccc32)cc1", "Potency": "active: 16.9 µM"}, {"compound": "CSc1nnc(NC(=O)c2ccc(S(=O)(=O)N3CCOCC3)cc2)s1", "Potency": "inconclusive: 19 µM [inhibitor, partial curve]"}, {"compound": "O=C(Nc1cccc(Cl)c1)c1nc[nH]c1C(=O)N1CCc2ccccc2C1", "Potency": "inactive"}, {"compound": "COc1ccc(OC)c(C(=O)N2CCC(CCC(=O)NC3CC3)CC2)c1", "Potency": "inactive"}, {"compound": "COc1ccc(N2CC(C(=O)NNC(=O)c3ccc(Br)cc3)CC2=O)c(OC)c1", "note": "(centres undefined)", "Potency": "inactive"}, {"compound": "COc1cccc(-c2nc3ccc(C(=O)NC(C)Cc4cccnc4)cc3o2)c1", "note": "(centres undefined)", "Potency": "active: 9.53 µM"}, {"compound": "COC(=O)c1ccc(COC(=O)c2cnccn2)cc1", "Potency": "inconclusive: 23.9 µM [inhibitor, single point]"}, {"compound": "Cn1c(CCC(=O)Nc2ccc(F)cc2)nc2cc(S(=O)(=O)N3CCOCC3)ccc21", "Potency": "inactive"}, {"compound": "C[C@@H](C(=O)Nc1ccc2ccccc2c1)[C@H]1C[C@]1(C)[C@H](NC(=O)c1cccnc1)c1ccccc1", "Potency": "inactive"}, {"compound": "CCOc1ccccc1NC(=O)c1ccc2c(c1)C(=O)N(CC)C2=O", "Potency": "inactive"}, {"compound": "CC(C)(C)c1ccc(C(=O)Nc2ccc(S(=O)(=O)Nc3cnc4ccccc4n3)cc2)cc1", "Potency": "active: 13.5 µM"}, {"compound": "CCOc1ccc(NC(=O)c2cccs2)c([N+](=O)[O-])c1", "Potency": "inconclusive: 1.69 µM [inhibitor, full curve]"}, {"compound": "N#Cc1ccccc1NS(=O)(=O)c1ccc(N2CCCCS2(=O)=O)cc1", "Potency": "inactive"}, {"compound": "CC1CCCC(C)N1/N=C/c1ccc([N+](=O)[O-])cc1", "note": "(centres undefined)", "Potency": "inconclusive: 30.1 µM [inhibitor, single point]"}, {"compound": "Nc1ccccc1SCC(=O)Nc1nc(-c2ccccc2)cs1", "Potency": "inconclusive: 26.9 µM [inhibitor, single point]"}, {"compound": "CCCN1CCN(C(=O)c2cc(COc3ccc(F)c(F)c3)on2)CC1", "Potency": "inconclusive: 26.9 µM [inhibitor, partial curve, poor fit]"}, {"compound": "COc1cccc(OCc2nc3ccccc3c(=O)n2N)c1", "Potency": "inconclusive: 13.5 µM [inhibitor, partial curve]"}, {"compound": "COc1c(O)ccc(/C=N/NC(=O)c2ccc3c(c2)OCCO3)c1[N+](=O)[O-]", "Potency": "active: 2.69 µM"}, {"compound": "O=C(/C=C/c1c[nH]c2ccccc12)c1cccc2ccccc12", "Potency": "inconclusive: 16.9 µM [inhibitor, single point]"}, {"compound": "NC(=O)CCCSc1nc2ccccc2[nH]1", "Potency": "inactive"}, {"compound": "COc1ccc(/C=C/C(=O)c2ccncc2)c2ccccc12", "Potency": "inconclusive: 37.9 µM [inhibitor, single point]"}, {"compound": "COc1ccc(OC)c(Nc2nc(-c3sc(C)nc3C)cs2)c1", "Potency": "inconclusive: 21.3 µM [inhibitor, partial curve, poor fit]"}, {"compound": "O=C(OC1CCOC1=O)c1cc(-c2ccc(Cl)cc2)nc2ccccc12", "note": "(centres undefined)", "Potency": "inconclusive: 21.3 µM [inhibitor, single point]"}, {"compound": "COC(=O)c1[nH]c2ccc(F)cc2c1NC(=O)C1=COCCO1", "Potency": "inactive"}, {"compound": "FC(F)(F)c1ccc(-n2cnc3ccccc32)nc1", "Potency": "inconclusive: 37.9 µM [inhibitor, partial curve, poor fit]"}, {"compound": "Cc1ccc(CNC(=O)CCc2c(C)nc3c4c(C)cc(C)nc4nn3c2C)cc1", "Potency": "inactive"}, {"compound": "Cc1c(Cl)c([N+](=O)[O-])nn1CCCC(=O)NCCc1ccccc1", "Potency": "inconclusive: 37.9 µM [inhibitor, partial curve, poor fit]"}, {"compound": "C[C@H](NC(N)=O)C(=O)Nc1ccc(OCc2ccccc2)cc1", "Potency": "inconclusive: 21.3 µM [inhibitor, partial curve, poor fit]"}, {"compound": "O=[N+]([O-])c1ccc(O)c(/C=N\\N=C2c3ccccc3-c3ccccc32)c1", "Potency": "inactive"}, {"compound": "COc1cccc(NC(=O)N(Cc2cn(C)c3ccccc23)C2CCCCCC2)c1", "Potency": "inactive"}, {"compound": "COc1ccc(-c2nc(CCl)cs2)cc1OC", "Potency": "inconclusive: 37.9 µM [inhibitor, partial curve, poor fit]"}, {"compound": "CCN1CCN(c2cc(C)c3cc(NC(=O)/C=C/c4ccc(C)cc4)ccc3n2)CC1", "Potency": "inconclusive: 15.1 µM [inhibitor, partial curve]"}, {"compound": "O=C(NCCO)c1ccc2[nH]c3ccccc3c2c1", "Potency": "inconclusive: 37.9 µM [inhibitor, partial curve, poor fit]"}, {"compound": "CCN1C(=Nc2ccc(Cl)cc2)SC/C1=C\\C(=O)OC", "Potency": "inconclusive: 21.3 µM [inhibitor, partial curve, poor fit]"}, {"compound": "Cc1cccc(CN2CCN(CC(=O)Nc3c(C)cccc3C)S2(=O)=O)c1", "Potency": "inactive"}, {"compound": "COc1ccc(N(CC(=O)NC2CCCCC2)C(=O)CCCC(=O)Nc2ccccn2)cc1", "Potency": "inactive"}, {"compound": "Cc1ccc(S(=O)(=O)c2n[nH]n3c2nc(=O)c2ccccc23)cc1", "Potency": "inactive"}, {"compound": "Nc1cccc(C(=O)Nc2ccc3nc(-c4cccnc4)[nH]c3c2)c1", "Potency": "inconclusive: 23.9 µM [inhibitor, partial curve]"}]}]}
